Experimental data from the supplement of paper PMC10037445.
± gives the standard deviation of the averaged measurements. In all, about 2,900 compounds were measured (“IRF Lucia reporter activity, fold change vs agonist alone”: median about 0.9, highest 2% from about 2.8 on). The list shows a part of the results.

What was measured:
[1] = tested on: RAW-Dual; test: IRF Lucia reporter activity, fold change vs agonist alone; higher = enhanced IRF activity; details: agonist: MPLA (TLR4) […]
How it was run: (§1)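 Cytotoxic wells were those whose IncuCyte confluency was below 70% of agonist controls in both mask sets. The cells were RAW-Dual macrophages at 50,000 cells/well in DMEM on 384-well plates, dosed with 50 nL of library stock by pin tool, stimulated with a PRR agonist 1 h later, and kept at 37 °C, 5% CO2 for 20 hours. IRF and NF-κB reporter activity, as fold change over agonist-alone wells, came from supernatant read by QuantiLuc luminescence and QuantiBlue absorbance, respectively.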

[2] = tested on: RAW-Dual; test: IRF Lucia reporter activity, fold change vs agonist alone; cytotoxicity flag (confluency mask): cytotoxic (confluency <70% of control); higher = enhanced IRF activity
How it was run: as §1

[3] = tested on: RAW-Dual; test: IRF Lucia reporter activity, fold change vs agonist alone; cytotoxicity flag (confluency mask): not cytotoxic; higher = enhanced IRF activity
How it was run: as §1

[4] = library stock concentration (final ~1000-fold dilution): 10 mM, cytotoxicity flag (confluency mask): not cytotoxic
[5] = agonist: 3'3'-cGAMP (STING) 10 ug/mL

CC(C)(C)C(O)/C(=C\c1ccc(Cl)cc1)n1cncn1 (configuration not stated)
IRF Lucia reporter activity [1, 4]: 1.14

CCn1c2ccccc2c2cc(CNCc3ccccc3OC)ccc21.Cl (library stock concentration (final ~1000-fold dilution): 10 mM)
IRF Lucia reporter activity [2, 5]: 0.801 | IRF Lucia reporter activity ([2]; agonist: LPS (TLR4) 0.1 ug/mL): 1.18

Cl.O=c1[nH]c(C2CCCN2)nc2c1oc1ccc(Cl)cc12 (configuration not stated) (library stock concentration (final ~1000-fold dilution): 10 mM water)
IRF Lucia reporter activity [3, 5]: 1.41 | IRF Lucia reporter activity ([3]; agonist: LPS (TLR4) 0.1 ug/mL): 1.19

Cl.O=c1[nH]c(C2CCCN2)nc2c1oc1ccc(Cl)cc12 (configuration not stated)
IRF Lucia reporter activity ([1]; library stock concentration (final ~1000-fold dilution): 10 mM water, cytotoxicity flag (confluency mask): not cytotoxic): 1.49

O=C(/C=C/c1ccc(O)c(O)c1)OC(Cc1ccc(O)c(O)c1)C(=O)O (configuration not stated)
IRF Lucia reporter activity [1, 4]: 1.16 ± 0.35

O=C(/C=C/c1ccc(O)c(O)c1)OC(Cc1ccc(O)c(O)c1)C(=O)O (configuration not stated) (library stock concentration (final ~1000-fold dilution): 10 mM)
IRF Lucia reporter activity [3, 5]: 0.616 ± 0.12 | IRF Lucia reporter activity ([3]; agonist: LPS (TLR4) 0.1 ug/mL): 1.01 ± 0.053

COc1cc2c(NC3CCN(C(C)C)CC3)nc(C3CCCCC3)nc2cc1OCCCN1CCCC1 (library stock concentration (final ~1000-fold dilution): 10 mM)
IRF Lucia reporter activity [2, 5]: 0.154 | IRF Lucia reporter activity ([2]; agonist: LPS (TLR4) 0.1 ug/mL): 0.0189

O=C(Nc1ccccc1)Nc1ccc(-c2ccc(C(=O)C3CCCC3C(=O)O)cc2)cc1 (configuration not stated) (library stock concentration (final ~1000-fold dilution): 10 mM)
IRF Lucia reporter activity [3, 5]: 1.15 | IRF Lucia reporter activity ([3]; agonist: LPS (TLR4) 0.1 ug/mL): 1.07

O=C(Nc1ccccc1)Nc1ccc(-c2ccc(C(=O)C3CCCC3C(=O)O)cc2)cc1 (configuration not stated)
IRF Lucia reporter activity [1, 4]: 1.22

O=c1[nH]nc2c3c(cccc13)N=C(CN1Cc3ccccc3C1)N2 (library stock concentration (final ~1000-fold dilution): 10 mM)
IRF Lucia reporter activity [3, 5]: 0.653 | IRF Lucia reporter activity ([3]; agonist: LPS (TLR4) 0.1 ug/mL): 0.666

C#Cc1cccc(Nc2ncnc3cc(OC)c(OCCCCCCC(=O)NO)cc23)c1 (library stock concentration (final ~1000-fold dilution): 10 mM)
IRF Lucia reporter activity [2, 5]: 0.117 | IRF Lucia reporter activity ([2]; agonist: LPS (TLR4) 0.1 ug/mL): 0.392

C#Cc1cccc(Nc2ncnc3cc(OC)c(OCCCCCCC(=O)NO)cc23)c1
IRF Lucia reporter activity ([1]; library stock concentration (final ~1000-fold dilution): 10 mM, cytotoxicity flag (confluency mask): cytotoxic (confluency <70% of control)): 0.26

O=S(=O)(c1ccc2c(c1)C(=NO)c1cc(S(=O)(=O)N3CCCCC3)ccc1-2)N1CCCCC1 (library stock concentration (final ~1000-fold dilution): 10 mM)
IRF Lucia reporter activity [3, 5]: 0.405 | IRF Lucia reporter activity ([3]; agonist: LPS (TLR4) 0.1 ug/mL): 0.478

CS(=O)(=O)n1cc2c(n1)CN(C1COC(c3cc(F)ccc3F)C(N)C1)C2 (configuration not stated) (library stock concentration (final ~1000-fold dilution): 10 mM)
IRF Lucia reporter activity [3, 5]: 0.908 | IRF Lucia reporter activity ([3]; agonist: LPS (TLR4) 0.1 ug/mL): 1.22

CCn1c2ccccc2c2cc(-n3nncc3-c3ccccc3)ccc21 (library stock concentration (final ~1000-fold dilution): 10 mM)
IRF Lucia reporter activity [3, 5]: 0.0459 | IRF Lucia reporter activity ([3]; agonist: LPS (TLR4) 0.1 ug/mL): 2.19

COc1cccc2c1c(O)c(C(=O)N(C)c1ccc(C(F)(F)F)cc1)c(=O)n2C (library stock concentration (final ~1000-fold dilution): 10 mM)
IRF Lucia reporter activity [3, 5]: 1.25 | IRF Lucia reporter activity ([3]; agonist: LPS (TLR4) 0.1 ug/mL): 1.07

O=C(Nc1cccc(C(F)(F)F)c1)c1cccc2cc(Oc3cc(CO)ncn3)ccc12 (library stock concentration (final ~1000-fold dilution): 10 mM)
IRF Lucia reporter activity [3, 5]: 0.798 | IRF Lucia reporter activity ([3]; agonist: LPS (TLR4) 0.1 ug/mL): 1.03

CN(CC(=O)N(Cc1ccc(C2CCCCC2)cc1)c1ccc(C(=O)O)c(O)c1)S(=O)(=O)c1c(F)c(F)c(F)c(F)c1F (library stock concentration (final ~1000-fold dilution): 10 mM)
IRF Lucia reporter activity [3, 5]: 0.0291 | IRF Lucia reporter activity ([3]; agonist: LPS (TLR4) 0.1 ug/mL): 0.255

NC(N)=NCCCC(N)C(=O)NC(CCCN=C(N)N)C(=O)N1CCCC1C(=O)N1CC(O)CC1C(=O)NCC(=O)NC(Cc1cccs1)C(=O)NC(CO)C(=O)N1Cc2ccccc2CC1C(=O)N1C(C(=O)NC(CCCN=C(N)N)C(=O)O)CC2CCCCC21 (configuration not stated)
IRF Lucia reporter activity ([1]; library stock concentration (final ~1000-fold dilution): 2 mM water, cytotoxicity flag (confluency mask): not cytotoxic): 1.25

NC(N)=NCCCC(N)C(=O)NC(CCCN=C(N)N)C(=O)N1CCCC1C(=O)N1CC(O)CC1C(=O)NCC(=O)NC(Cc1cccs1)C(=O)NC(CO)C(=O)N1Cc2ccccc2CC1C(=O)N1C(C(=O)NC(CCCN=C(N)N)C(=O)O)CC2CCCCC21 (configuration not stated) (library stock concentration (final ~1000-fold dilution): 2 mM water)
IRF Lucia reporter activity [3, 5]: 0.973 | IRF Lucia reporter activity ([3]; agonist: LPS (TLR4) 0.1 ug/mL): 0.782

CN(C)CCN(Cc1ccc(Cl)cc1)c1ccccn1.Cl
IRF Lucia reporter activity [1, 4]: 1.02

CN(C)CCN(Cc1ccc(Cl)cc1)c1ccccn1.Cl (library stock concentration (final ~1000-fold dilution): 10 mM)
IRF Lucia reporter activity [3, 5]: 0.714 | IRF Lucia reporter activity ([3]; agonist: LPS (TLR4) 0.1 ug/mL): 0.968

CC(C)=CCc1c(-c2ccc(O)cc2O)oc2c3c(cc(O)c2c1=O)OC(C)(C)C=C3 (library stock concentration (final ~1000-fold dilution): 10 mM)
IRF Lucia reporter activity [2, 5]: 0.0354 | IRF Lucia reporter activity ([2]; agonist: LPS (TLR4) 0.1 ug/mL): 0.23

c1ccc(-c2n[nH]cc2-c2ccnc3ccccc23)nc1
IRF Lucia reporter activity ([1]; library stock concentration (final ~1000-fold dilution): 2 mM, cytotoxicity flag (confluency mask): not cytotoxic): 1.19

c1ccc(-c2n[nH]cc2-c2ccnc3ccccc23)nc1 (library stock concentration (final ~1000-fold dilution): 2 mM)
IRF Lucia reporter activity [3, 5]: 0.776 | IRF Lucia reporter activity ([3]; agonist: LPS (TLR4) 0.1 ug/mL): 0.718
